Results published in the supplement of paper PMC4604168 (melanoma cell lines).
This is one part of the list. Single values are uncertain, as repeats are few or missing.

How the values were obtained:
Test in all cases: cell count relative to DMSO control; melanoma cells; higher = more viable cells
Details in all cases: library dose: standard library concentration; 72 h
G361 = test system: G361
IPC-298 = test system: IPC-298
IST-MEL1 = test system: IST-MEL1
LB2518-MEL = test system: LB2518-MEL
LOXIMVI = test system: LOXIMVI
MEL-HO = test system: MEL-HO
MZ2-MEL = test system: MZ2-MEL
MeWo = test system: MeWo
RPMI7951 = test system: RPMI7951
RVH-421 = test system: RVH-421
SkMel28 = test system: SkMel28
SkMel2 = test system: SkMel2
SkMel30 = test system: SkMel30
SkMel5 = test system: SkMel5
UACC257 = test system: UACC257
UACC62 = test system: UACC62
WM115 = test system: WM115
WM1716 = test system: WM1716
WM3526 = test system: WM3526
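Further: cells treated in 1,536-well plates, then fixed and DAPI-stained, with nuclei counted from automated high-throughput microscope images.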

| Compound | cell count (G361) [%] | cell count (IPC-298) [%] | cell count (IST-MEL1) [%] | cell count (LB2518-MEL) [%] | cell count (LOXIMVI) [%] | cell count (MEL-HO) [%] | cell count (MZ2-MEL) [%] | cell count (MeWo) [%] | cell count (RPMI7951) [%] | cell count (RVH-421) [%] | cell count (SkMel28) [%] | cell count (SkMel2) [%] | cell count (SkMel30) [%] | cell count (SkMel5) [%] | cell count (UACC257) [%] | cell count (UACC62) [%] | cell count (WM115) [%] | cell count (WM1716) [%] | cell count (WM3526) [%] |
| --- | --- | --- | --- | --- | --- | --- | --- | --- | --- | --- | --- | --- | --- | --- | --- | --- | --- | --- | --- |
| CC1(C)CCC(c2ccc(Cl)cc2)=C(CN2CCN(c3ccc(C(=O)NS(=O)(=O)c4ccc(N[C@H](CCN5CCOCC5)CSc5ccccc5)c(S(=O)(=O)C(F)(F)F)c4)cc3)CC2)C1 + O=C(Oc1ccc([N+](=O)[O-])cc1)N1CCC(C(O)(c2ccc3c(c2)OCO3)c2ccc3c(c2)OCO3)CC1 [JZL184] (first compound 2 µM, partner dose 5 µM) | 104 | 92.2 | 82.7 | 112 | 49.5 | 74.4 | 90.8 | 102 | 41.9 | 74.8 | 73.4 | 91.5 | 85.8 | 110 | 40.2 | 78 | 79.2 | 55.3 | 107 |
| Nc1ncn([C@H]2C[C@H](O)[C@@H](CO)O2)c(=O)n1 [decitabine] + C/C(O)=C(\C#N)C(=O)Nc1cc(Br)ccc1Br [LFM-A13] (first compound 0.5 µM, partner dose 10 µM) | 65.6 | 64.2 | 76.5 | 85.7 | 111 | 75.3 | 88.3 | 71.7 | 69.3 | 64 | 69.9 | 91.5 | 95.6 | 93.2 | 97.4 | 80.5 | 66.4 | 80 | 89.2 |
| COc1cc([C@@H]2c3cc4c(cc3[C@@H](O[C@@H]3O[C@@H]5CO[C@@H](C)O[C@H]5[C@H](O)[C@H]3O)[C@H]3COC(=O)[C@H]23)OCO4)cc(OC)c1O [etoposide] + O=C(Oc1ccc([N+](=O)[O-])cc1)N1CCC(C(O)(c2ccc3c(c2)OCO3)c2ccc3c(c2)OCO3)CC1 [JZL184] (first compound 0.1 µM, partner dose 5 µM) | 85.8 | 85.4 | 103 | 84.4 | 126 | 83.6 | 87.5 | 75 | 77.3 | 96.4 | 75.5 | 76.7 | 93.3 | 63.6 | 85 | 53.8 | 78 | 66.6 | 78.6 |
| C[C@]1(O)C[C@@H](c2nc(-c3ccc4ccc(-c5ccccc5)nc4c3)c3c(N)nccn32)C1 + O=C(Oc1ccc([N+](=O)[O-])cc1)N1CCC(C(O)(c2ccc3c(c2)OCO3)c2ccc3c(c2)OCO3)CC1 [JZL184] (first compound 2 µM, partner dose 5 µM) | 84.5 | 97.5 | 94.5 | 108 | 106 | 100 | 111 | 77.9 | 101 | 109 | 97 | 96 | 107 | 81.2 | 93.4 | 86.3 | 97.9 | 73.6 | 72.1 |
| C[C@]1(O)C[C@@H](c2nc(-c3ccc4ccc(-c5ccccc5)nc4c3)c3c(N)nccn32)C1 + Cc1cc(SCc2sc(-c3ccc(C(F)(F)F)c(F)c3)nc2C)ccc1OCC(=O)O [GW0742] (first compound 2 µM, partner dose 10 µM) | 81 | 87 | 83.5 | 117 | 180 | 90 | 103 | 82.9 | 81.2 | 106 | 83.4 | 93.1 | 114 | 80.8 | 82.5 | 66.8 | 120 | 91.9 | 69.3 |
| CNC(=O)c1cc(Oc2ccc(NC(=O)Nc3ccc(Cl)c(C(F)(F)F)c3)cc2)ccn1 [sorafenib] + Cc1cc(SCc2sc(-c3ccc(C(F)(F)F)c(F)c3)nc2C)ccc1OCC(=O)O [GW0742] (first compound 2 µM, partner dose 10 µM) | 68.8 | 83.3 | 84.6 | 79.4 | 109 | 78.9 | 91.7 | 91.1 | 62 | 97.6 | 92.5 | 95.3 | 103 | 94 | 66.5 | 91.5 | 113 | 73.4 | 82.5 |
| Cn1c(=O)n(-c2ccc(C(C)(C)C#N)cc2)c2c3cc(-c4cnc5ccccc5c4)ccc3ncc21 + C/C(O)=C(\C#N)C(=O)Nc1cc(Br)ccc1Br [LFM-A13] (first compound 0.02 µM, partner dose 10 µM) | 54.8 | 73.3 | 79 | 85.8 | 82 | 55.5 | 79.1 | 64.8 | 72.8 | 77 | 50.7 | 70.1 | 75.1 | 79.5 | 112 | 72.4 | 79.3 | 68.1 | 73.3 |
| O=C(O)[C@@H]1[O][Sb](=[O])([O][Sb]2(=[O])[O][C@H]([C@H](O)CO)[C@H](O)[C@H](C(=O)O)[O]2)[O][C@H]([C@H](O)CO)[C@@H]1O (some centres not stated) [stibogluconate] + O=C(Oc1ccc([N+](=O)[O-])cc1)N1CCC(C(O)(c2ccc3c(c2)OCO3)c2ccc3c(c2)OCO3)CC1 [JZL184] (first compound 10 µM, partner dose 5 µM) | 104 | 88.1 | 109 | 123 | 194 | 87.2 | 105 | 102 | 124 | 144 | 102 | 108 | 110 | 118 | 113 | 82.2 | 143 | 92.6 | 81.3 |
